This data set concerns the molecule itself. Briefly: pyrene excimer fluorescence.

The source of these data is article PMC3448802 (Biochemistry, 2012).

B1: pyrene-labeled apoEC112S/L181C([…]) (natural protein)
chain: not shown
modifications: N-(1-pyrene)maleimide on Cys181 (thioether)
Take B1: the binding result is “binds”.

B2: pyrene-labeled apoEC112S/V161C([…]) (natural protein)
chain: not shown
modifications: N-(1-pyrene)maleimide on Cys161 (thioether)
With B2, the binding result is “binds”.
